Patent US20240209106A1 (BEIGENE SWITZERLAND, published 2024)
Positions count from the first letter of the chain named.

Columns and labels:
[1] = target: T1, full-length human CD137 (huCD137) (human, UniProt Q07011 24-255); assay: flow cytometry on Hut78/huCD137 cells, detection with labelled anti-hu IgG Fc [panel B]
T1 construct: On transduced Hut78 cells (Hut78/huCD137), transiently on HEK293 cells, or natively on PBMC/T cells; also called TNFRSF9; 4-1BB

human CD137 ECD-mIgG2a [2] = target: human CD137 ECD-mIgG2a (human); assay: SPR (BIAcore T-200): antibody captured on anti-human IgG (Fc) CM5 chip, human CD137 ECD-mIgG2a as analyte, 1:1 Langmuir fit [panel A]
human CD137 ECD-mIgG2a [3] = target: human CD137 ECD-mIgG2a (human); assay: SPR, Fc-fusion VH captured on anti-human IgG Fc chip, human CD137 ECD-mIgG2a flowed over
[4] = target: T1, full-length human CD137 (huCD137); assay: flow cytometry on Hut78/huCD137 cells
human CD137 ECD-mIgG2a [5] = target: human CD137 ECD-mIgG2a (human); assay: SPR, human CD137 ECD-mIgG2a
human CD137 ECD-mIgG2a [6] = target: human CD137 ECD-mIgG2a (human); assay: SPR, antibody captured on anti-human IgG Fc chip, human CD137 ECD-mIgG2a flowed over
TNFRSF18(GITR) = target: T2, TNFRSF18(GITR) (UniProt Q9Y5U5 26-161, limits assumed); assay: antigen ELISA, receptor coated at 10 ug/ml, detection with HRP anti-human IgG
T2 construct: Bought protein
T2 sequence (looked up): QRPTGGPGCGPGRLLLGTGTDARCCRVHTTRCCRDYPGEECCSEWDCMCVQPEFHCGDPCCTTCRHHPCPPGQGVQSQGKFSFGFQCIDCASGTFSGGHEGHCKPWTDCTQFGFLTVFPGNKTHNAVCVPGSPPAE

human CD40 ECD = target: T3, human CD40 ECD (human, UniProt P25942 part only); assay: as above
T3 construct: also called TNFRSF5(CD40); huCD40

TNFRSF1B(CD120b) = target: T4, TNFRSF1B(CD120b) (UniProt P20333 23-257); assay: as above
T4 construct: Bought protein
T4 sequence (looked up): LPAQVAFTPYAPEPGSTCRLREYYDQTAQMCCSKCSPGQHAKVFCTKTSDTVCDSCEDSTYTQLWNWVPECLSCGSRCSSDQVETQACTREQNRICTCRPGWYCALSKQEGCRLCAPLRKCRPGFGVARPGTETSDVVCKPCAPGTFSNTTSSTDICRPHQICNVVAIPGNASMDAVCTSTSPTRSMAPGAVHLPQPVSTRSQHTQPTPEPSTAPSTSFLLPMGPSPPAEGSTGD

TNFRSF1A(CD120a) = target: T5, TNFRSF1A(CD120a) (UniProt P19438 22-211, limits assumed); assay: as above
T5 construct: Bought protein
T5 sequence (looked up): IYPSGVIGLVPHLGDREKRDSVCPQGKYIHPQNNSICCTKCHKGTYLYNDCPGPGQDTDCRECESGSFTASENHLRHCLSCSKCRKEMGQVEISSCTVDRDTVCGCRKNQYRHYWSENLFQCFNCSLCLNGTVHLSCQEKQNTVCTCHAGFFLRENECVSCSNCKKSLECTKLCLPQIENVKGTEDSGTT

TNFRSF7(CD27) = target: T6, TNFRSF7(CD27) (UniProt P26842 21-192, limits assumed); assay: as above
T6 construct: Bought protein
T6 sequence (looked up): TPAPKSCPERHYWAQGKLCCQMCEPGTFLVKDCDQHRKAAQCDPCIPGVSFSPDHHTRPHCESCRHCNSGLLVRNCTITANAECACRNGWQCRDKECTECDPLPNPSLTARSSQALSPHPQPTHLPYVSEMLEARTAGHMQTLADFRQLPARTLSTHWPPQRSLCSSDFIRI

human OX40 ECD = target: T7, human OX40 ECD (human, UniProt P43489 29-216); assay: as above
T7 construct: also called TNFRSF4(OX40); huOX40
T7 sequence: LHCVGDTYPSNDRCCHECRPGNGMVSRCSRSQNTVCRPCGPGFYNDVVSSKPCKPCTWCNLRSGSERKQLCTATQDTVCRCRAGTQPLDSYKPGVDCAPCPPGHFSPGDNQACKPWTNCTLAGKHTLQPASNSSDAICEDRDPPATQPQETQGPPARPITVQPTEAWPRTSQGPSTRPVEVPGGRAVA

cyno CD137 ECD-mIgG2a = target: T8, cyno CD137 ECD-mIgG2a (Monkey (Macaca mulatta), called cyno); assay: SPR, antibody captured on anti-human IgG Fc chip, cyno CD137 ECD-mIgG2a flowed over
T8 construct: also called monkey CD137
T8 chain: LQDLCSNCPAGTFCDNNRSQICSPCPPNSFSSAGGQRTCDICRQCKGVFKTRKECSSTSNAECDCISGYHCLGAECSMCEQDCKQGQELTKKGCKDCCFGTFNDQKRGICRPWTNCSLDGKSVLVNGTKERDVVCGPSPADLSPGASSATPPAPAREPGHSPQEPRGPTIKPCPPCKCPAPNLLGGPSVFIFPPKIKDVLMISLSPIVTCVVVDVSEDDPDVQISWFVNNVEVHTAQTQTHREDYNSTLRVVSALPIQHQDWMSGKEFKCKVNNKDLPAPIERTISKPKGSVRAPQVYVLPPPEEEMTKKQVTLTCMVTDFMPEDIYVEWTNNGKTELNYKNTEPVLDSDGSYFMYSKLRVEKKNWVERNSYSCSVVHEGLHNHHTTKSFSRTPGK

T1 sequence (Q07011 24-255 limits assumed): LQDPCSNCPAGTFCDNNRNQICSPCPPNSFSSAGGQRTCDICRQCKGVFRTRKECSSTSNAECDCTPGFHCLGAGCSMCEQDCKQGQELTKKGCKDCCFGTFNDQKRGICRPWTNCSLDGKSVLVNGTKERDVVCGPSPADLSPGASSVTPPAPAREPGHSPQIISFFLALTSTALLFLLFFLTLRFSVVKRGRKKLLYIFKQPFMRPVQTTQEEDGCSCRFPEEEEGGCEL
Sequence of human CD40 ECD (P25942 21-194 limits assumed): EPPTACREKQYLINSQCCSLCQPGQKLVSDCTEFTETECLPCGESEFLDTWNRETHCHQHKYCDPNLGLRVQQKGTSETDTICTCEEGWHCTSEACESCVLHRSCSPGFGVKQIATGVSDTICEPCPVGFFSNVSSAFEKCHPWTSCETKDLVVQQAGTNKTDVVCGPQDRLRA

B1: BGA-4712 (VH-Fc) (Fc fusion)
chain: EVQLLESGGGLVQPGGSLRLSCAASGFMLSAEDVGWVRQAPGKGLEWVSAILDFGGSTYYADSVKGRFTISRDNSKNTLYLQMNSLRAEDTAVYYCARVVYHAGGGVTFDYWGQGTLVTVSSGGGGS[human IgG1 Fc not shown]
B1 showed an EC50 [1] of 2.97 µg/mL, a Kd (human CD137 ECD-mIgG2a [2]) of 36.4 nM and a koff (human CD137 ECD-mIgG2a [2]) of 0.000794 s⁻¹. For the same binder, the kon (human CD137 ECD-mIgG2a [2]) was 21800 M⁻¹ s⁻¹.

B2: BGA-3285-mutFc (Fc fusion)
chain: B1 chain with M28T, L29I, D62E, S75A, N84S, Y111T, W112R, L117Q
B2 was tested, and the Kd (human CD137 ECD-mIgG2a [3]) was 186 nM.

B3: BGA-3849-mutFc (Fc fusion)
chain: B1 chain with M28T, A31H, F54S, D62E, S75A, N84S, V99Y, Y111T, W112R, L117Q
For B3, the Kd (human CD137 ECD-mIgG2a [3]) was 76.3 nM.

B4: BGA-3953-mutFc (Fc fusion)
chain: B1 chain with M28T, L29V, F54S, D62E, S75A, N84S, V99I, Y111T, W112R, L117Q
Work on B4 yielded a Kd (human CD137 ECD-mIgG2a [3]) of 48.3 nM.

B5: BGA-4712-M3-mutFc (Fc fusion)
chain: B1 chain with M28T, D62E, S75A, N84S
In the case of B5, the EC50 [4] is reported as 2.37 µg/mL, the Kd (human CD137 ECD-mIgG2a [3]) is reported as 169 nM and the Kd (human CD137 ECD-mIgG2a [5]) is reported as 169 nM.

B6: BGA-4988-mutFc (Fc fusion)
chain: B1 chain with M28T, L29V, F54R, D62E, S75A, N84S, F109Y, Y111T, W112R, L117Q
Binder B6 has a Kd (human CD137 ECD-mIgG2a [3]) of 1030 nM.

B7: BGA-5623-mutFc (Fc fusion)
chain: B1 chain with M28T, L29V, F54K, D62E, S75A, N84S, V99I, Y111T, W112R, L117Q
notes: also called Fc fusion VH Ab
B7 showed a Kd (human CD137 ECD-mIgG2a [3]) of 50.3 nM.

B8: BGA-7556-mutFc (Fc fusion)
chain: B1 chain with M28T, D62E, S75A, N84S, W112R, L117Q
notes: also called BGA-7556 (Fc fusion VH)
B8 gave an EC50 [4] of 5.71 µg/mL, a Kd (human CD137 ECD-mIgG2a [3]) of 200 nM and a Kd (human CD137 ECD-mIgG2a [5]) of 200 nM.

B9: BGA-7746-mutFc (Fc fusion)
chain: B1 chain with M28T, L29V, D62E, S75A, N84S, Y111T, W112R, L117Q
B9 showed a Kd (human CD137 ECD-mIgG2a [3]) of 193 nM.

B10: BGA-7916-mutFc (Fc fusion)
chain: B1 chain with M28T, L29V, F54S, D62E, S75A, N84S, F109Y, Y111T, W112R, L117Q
B10 gave a Kd (human CD137 ECD-mIgG2a [3]) of 87.7 nM.

B11: BGA-8425-mutFc (Fc fusion)
chain: B1 chain with M28T, F54S, D62E, S75A, N84S, F109Y, W112R, L117Q
With B11 the Kd (human CD137 ECD-mIgG2a [3]) was 93.4 nM.

B12: BGA-9442-mutFc (Fc fusion)
chain: B1 chain with M28T, L29I, F54S, D62E, S75A, N84S, V99Y, Y111L, W112R, L117Q
B12 showed a Kd (human CD137 ECD-mIgG2a [3]) of 151 nM.

B13: BGA-9468-mutFc (Fc fusion)
chain: B1 chain with M28T, L29V, F54S, D62E, S75A, N84S, A103S, Y111L, W112R, L117Q
Work on B13 yielded a Kd (human CD137 ECD-mIgG2a [3]) of 190 nM.

B14: BGA-5623 (IgG1) (Fc fusion)
chain: EVQLLESGGGLVQPGGSLRLSCAASGFTVSAEDVGWVRQAPGKGLEWVSAILDKGGSTYYAESVKGRFTISRDNAKNTLYLQMSSLRAEDTAVYYCARIVYHAGGGVTFDTRGQGTQVTVSS[human IgG1 Fc with changes not shown]
With B14 the Kd (human CD137 ECD-mIgG2a [6]) was 79.4 nM, the koff (human CD137 ECD-mIgG2a [6]) was 0.00322 s⁻¹ and the kon (human CD137 ECD-mIgG2a [6]) was 40500 M⁻¹ s⁻¹. B14: no binding (TNFRSF18(GITR)); no binding (human CD40 ECD); no binding (TNFRSF1B(CD120b)). B14: no binding (TNFRSF1A(CD120a)); no binding (TNFRSF7(CD27)); no binding (human OX40 ECD). It also gave a Kd (cyno CD137 ECD-mIgG2a) of 12.2 nM, a koff (cyno CD137 ECD-mIgG2a) of 0.00197 s⁻¹ and a kon (cyno CD137 ECD-mIgG2a) of 162000 M⁻¹ s⁻¹.
